Data on 172 sequences can be found in paper PMC6212790.

Some of the results follow. At the low end of the ranking, values are background and their order means little.

The target in the assay is T1, GST-Rok (full length) (UniProt O34857).
T1 sequence: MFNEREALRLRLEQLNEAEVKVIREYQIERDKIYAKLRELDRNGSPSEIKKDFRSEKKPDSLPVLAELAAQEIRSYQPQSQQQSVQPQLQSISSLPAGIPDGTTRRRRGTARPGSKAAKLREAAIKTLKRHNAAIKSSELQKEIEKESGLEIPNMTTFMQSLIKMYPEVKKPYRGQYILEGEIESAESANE
Nature of the assay: protein binding microarray.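 Note: rank score from −0.5 (least bound) to 0.5 (best bound).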 The note with it: Rok is a gene silencer of Bacillus subtilis; high values mean tight binding; most listed sequences are background and not binding sites; double strand, one strand shown.
As to GAAATATC, the binding signal turned out to be 0.223 E-score.
GAGAATTA showed a binding signal of 0.198 E-score.
CAAGCATA gave a binding signal of 0.0305 E-score.
With CAGCCGGA the figure was -0.183 E-score; with CCATCCAG, -0.0984 E-score.
In turn, TATGAAAA registered a binding signal of -0.0441 E-score.
Regarding ACACCTGG, the binding signal is -0.181 E-score.
In turn, AATTATTC registered a binding signal of 0.232 E-score.
To TAGACCGA belongs 0.0209 E-score.
CAAAGGCC displayed a binding signal of -0.379 E-score.
With AGGCGCCC the figure was -0.334 E-score; with AACAGCGC, -0.139 E-score; with CACCATAG, -0.0481 E-score.
With GAAACACA the figure was 0.0318 E-score; with GATACAGA, -0.0115 E-score; with ACATCGCC, -0.166 E-score.
To CATTAATG belongs 0.281 E-score.
Take CGCACCCC: the binding signal was -0.41 E-score.
With GTGCCTCA the figure was -0.181 E-score; with GTAAGACA, 0.088 E-score.
With ATCTTCTA the figure was 0.268 E-score; with ACCGGCGA, -0.0876 E-score.
With CTGAGTAA the figure was 0.0839 E-score; with GTGGGATA, 0.0946 E-score.
Regarding CCATTGGG, the binding signal was -0.0934 E-score.
To ATTCACCC belongs 0.0731 E-score; to ATGATTGC, 0.0392 E-score.
CGTCGACA displayed a binding signal of -0.189 E-score.
The sequence TCGTACCA showed a binding signal of 0.0368 E-score.
To AGACCGTA belongs -0.0652 E-score; to AACACTCT, 0.0485 E-score.
To CCTCTTCC belongs -0.275 E-score; to CACTAGCA, -0.0567 E-score; to GCAGTTCA, 0.00898 E-score.
On to CATCACGG, for which the binding signal was -0.246 E-score.
In turn, CGATCCGC returned a binding signal of -0.095 E-score.
To CACAATAC belongs 0.0701 E-score.
With GTTGCAAA the figure was 0.0994 E-score.
With ACGAGGAA the figure was -0.201 E-score.
ACATGCTA came in with a binding signal of 0.365 E-score.
ATAGCGCG showed a binding signal of 0.307 E-score.
To ACCATCGC belongs 0.0647 E-score; to AGGTACCG, 0.17 E-score; to CCACCGCG, -0.355 E-score.
For AGAGGTAC, the binding signal was 0.0913 E-score.
With GCAAAGCA, the binding signal is -0.0886 E-score.
To GCTGTGAC belongs -0.0172 E-score; to ACCGAGCG, -0.175 E-score.
Take GAGCGTTA: the binding signal was -0.0279 E-score.
Sequence ATTGCCTG showed a binding signal of -0.0581 E-score.
With ACATATGA the figure was 0.069 E-score; with ACTCTTGA, -0.0472 E-score; with CGGAAGAA, -0.18 E-score.
For GTGTATCA, the binding signal was 0.129 E-score.
CACGACCA returned a binding signal of -0.0267 E-score.
To AGAGCGGA belongs -0.283 E-score; to AAAGCGCC, -0.185 E-score.
The sequence CTCCGCTA had a binding signal of -0.000908 E-score.
CGTATAAA gave a binding signal of 0.119 E-score.
With GCTCTCGA the figure was -0.144 E-score.
Turning to AGCATTTG, the binding signal is -0.0884 E-score.
In turn, CACAATGA showed a binding signal of 0.106 E-score.
With GTCGCATA the figure was -0.0549 E-score; with CCTAAATC, -0.1 E-score.
To CATCTACG belongs 0.0251 E-score; to AACTATCT, 0.331 E-score.
CCCACACG came in with a binding signal of -0.365 E-score.
With ACTATGCG the figure was 0.0516 E-score; with AGGAATGC, -0.0829 E-score; with CGGTTAAC, 0.164 E-score.
In the case of TACACACA, the binding signal stood at 0.0485 E-score.
With GCAAAATA the figure was 0.184 E-score.
To ATTACCTA belongs 0.382 E-score.
Regarding AGGCCGGC, the binding signal was -0.226 E-score.
As for CTACATAC, the binding signal was determined as 0.269 E-score.
With GACATTGC the figure was -0.136 E-score.
To ATGGTAGG belongs 0.243 E-score; to CCACGGAC, -0.154 E-score; to CCCTCTGC, -0.222 E-score.
ACCCTGAC came in with a binding signal of -0.167 E-score.
To GGCAGCTA belongs -0.0821 E-score; to AGCACCAA, -0.086 E-score; to CTTACATA, 0.211 E-score.
ACTGGTAA yielded a binding signal of 0.277 E-score.
To CCTATGAG belongs 0.000244 E-score; to ACCGCTGG, -0.0482 E-score; to ACTACGGA, 0.119 E-score.
To GACGCTCC belongs -0.155 E-score.
With GCCTGGCA the figure was -0.345 E-score.
The sequence AACACTGT registered a binding signal of -0.00154 E-score.
In the case of GTACAATA, the binding signal was determined as 0.304 E-score.
To CTGCGCCA belongs -0.24 E-score; to ATATTAAC, 0.298 E-score.
With CTTCCGCA the figure was -0.0431 E-score; with CAACGAGC, -0.148 E-score.
To AGCGCGAA belongs 0.142 E-score.
Sequence AATCCACG had a binding signal of 0.0115 E-score.
ATAAGACA yielded a binding signal of 0.105 E-score.
To AAGTTGGG belongs -0.114 E-score; to GGGGTTAC, -0.237 E-score.
For the sequence CGTGGTGA, the binding signal is -0.00549 E-score.
With AGGGTACT the figure was 0.131 E-score; with AACTGCTA, -0.0323 E-score.
AAAGCTCT gave a binding signal of -0.0882 E-score.
To AAGGGCGT belongs -0.277 E-score.
To AGAGATGG belongs -0.13 E-score; to AATGGTCC, 0.00517 E-score; to CGAATGGA, 0.112 E-score.
To ATGTTGCC belongs -0.0627 E-score; to CCATGAGG, -0.052 E-score.
Take CGCAGCCA: the binding signal is -0.187 E-score.
To GACGGGAC belongs -0.35 E-score; to ACACAATG, 0.0181 E-score.
With AGGTGATG the figure was -0.0761 E-score; with GATGTAAC, 0.071 E-score.
Take CGTGGCAA: the binding signal was -0.156 E-score.
ATTCACGA returned a binding signal of -0.0154 E-score.
With GTCTTCTA the figure was 0.116 E-score; with AGTTTGGA, 0.18 E-score; with CTGTTCTA, 0.142 E-score.
On to GGGTCCTA, for which the binding signal is -0.079 E-score.
As to AGGCAGGC, the binding signal is -0.336 E-score.
On to ACTGACCC, for which the binding signal was -0.226 E-score.
On to AATACGGC, for which the binding signal is -0.0443 E-score.
With ACTACTAT the figure was 0.465 E-score; with GCAGCTAA, 0.0215 E-score; with ATCGACGC, -0.109 E-score.
To AAAGGCGT belongs -0.101 E-score; to GCTATTAC, 0.269 E-score; to CATAGAGC, -0.0937 E-score.
On to CCATGCGG, for which the binding signal is -0.151 E-score.
To ATACCAAG belongs -0.0148 E-score; to ACGTCTGG, -0.0674 E-score; to TCGAGGAA, -0.082 E-score.
In the case of ACGCCCCC, the binding signal was -0.307 E-score.
To CCATTATC belongs 0.176 E-score; to GTAGTATA, 0.423 E-score.
With TAGTAGCA the figure was 0.258 E-score; with ATGGATAC, 0.105 E-score; with CTACGGTA, 0.175 E-score.
In turn, ATTGAGGC showed a binding signal of -0.219 E-score.
With TCGACAAA the figure was 0.0413 E-score; with AGTTGTAC, 0.259 E-score.
To AGACCCAC belongs -0.204 E-score.
To CCGGAATA belongs 0.18 E-score.
AGCGGGAA gave a binding signal of -0.261 E-score.
To ACGTCGGG belongs -0.296 E-score; to CCCAGCCG, -0.339 E-score; to CGTGGTTA, 0.0207 E-score.
With CACTCACG the figure was -0.0587 E-score; with ATACGGAC, 0.0468 E-score.
TTAGCAAA: the binding signal turned out to be 0.193 E-score.
Turning to AGACATAA, the binding signal is 0.0576 E-score.
In turn, GCGTAGTA gave a binding signal of 0.17 E-score.
With AGATGCGC, the binding signal was -0.078 E-score.
To AACAAAGG belongs 0.0427 E-score.
GAAGGGTA yielded a binding signal of -0.119 E-score.
AATATTGG returned a binding signal of 0.103 E-score.
For GCTGTAAA, the binding signal was 0.151 E-score.
To GAGCACGC belongs -0.216 E-score; to AGGAGACA, -0.111 E-score.
To CTTCGACA belongs 0.0981 E-score; to AAGATCAC, 0.187 E-score; to ACGAAATG, 0.266 E-score.
With TATTGAGA the figure was 0.144 E-score; with CTTCCCTC, -0.276 E-score.
On to AAGCATCC, for which the binding signal is -0.194 E-score.
For CTTGGTTA, the binding signal is -0.000206 E-score.
With ATTAGTAG the figure was 0.321 E-score.
To CCGAGCTC belongs -0.0815 E-score; to ATTGAATA, 0.152 E-score; to CGGTCCTA, 0.0495 E-score.
